Test results: publication PMC4336329 (PLoS ONE, 2015)
Out of some 310,000 compounds screened, about 2,200 (0.71%) showed an effect of 50% or more. The effect is printed as a negative number. This is one part of the list.

Target: human ether-à-go-go-related gene (hERG) potassium channel (human, UniProt Q12809)
Test: primary screen, population patch clamp on CHO cells stably expressing hERG

Sequence of human ether-à-go-go-related gene (hERG) potassium channel (Q12809 whole entry, looked up): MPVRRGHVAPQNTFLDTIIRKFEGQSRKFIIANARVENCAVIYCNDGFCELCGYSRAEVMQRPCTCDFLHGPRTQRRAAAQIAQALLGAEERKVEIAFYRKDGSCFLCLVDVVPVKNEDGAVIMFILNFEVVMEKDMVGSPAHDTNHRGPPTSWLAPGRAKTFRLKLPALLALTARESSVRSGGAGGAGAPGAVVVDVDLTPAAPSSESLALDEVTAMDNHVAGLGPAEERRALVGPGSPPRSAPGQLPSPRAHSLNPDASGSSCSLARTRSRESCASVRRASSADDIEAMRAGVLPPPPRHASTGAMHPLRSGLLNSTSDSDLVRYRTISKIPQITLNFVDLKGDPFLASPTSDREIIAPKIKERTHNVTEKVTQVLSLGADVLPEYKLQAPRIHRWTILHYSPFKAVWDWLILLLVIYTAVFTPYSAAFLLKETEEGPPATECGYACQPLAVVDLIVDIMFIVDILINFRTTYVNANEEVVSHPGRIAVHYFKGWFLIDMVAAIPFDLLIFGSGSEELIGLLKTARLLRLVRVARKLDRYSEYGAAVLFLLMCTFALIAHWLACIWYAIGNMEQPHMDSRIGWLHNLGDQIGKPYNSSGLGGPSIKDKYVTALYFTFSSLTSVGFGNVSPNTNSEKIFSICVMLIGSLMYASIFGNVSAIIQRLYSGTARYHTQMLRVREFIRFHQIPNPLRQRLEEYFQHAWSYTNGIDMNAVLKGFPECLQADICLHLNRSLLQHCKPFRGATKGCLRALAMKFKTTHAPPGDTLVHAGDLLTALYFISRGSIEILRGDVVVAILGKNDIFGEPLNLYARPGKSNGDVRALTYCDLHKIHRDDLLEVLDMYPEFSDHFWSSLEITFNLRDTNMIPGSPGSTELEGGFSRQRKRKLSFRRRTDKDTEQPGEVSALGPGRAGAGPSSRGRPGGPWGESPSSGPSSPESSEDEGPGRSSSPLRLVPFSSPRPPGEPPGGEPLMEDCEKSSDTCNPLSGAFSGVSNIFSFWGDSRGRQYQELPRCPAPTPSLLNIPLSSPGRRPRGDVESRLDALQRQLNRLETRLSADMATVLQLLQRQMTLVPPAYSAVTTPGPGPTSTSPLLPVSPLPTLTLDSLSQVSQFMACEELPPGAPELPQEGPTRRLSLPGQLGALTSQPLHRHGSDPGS

Compound	hERG current change (%, negative = inhibition) at 1uM [%]
COc1ccc(NC(=O)c2oc3ccccc3c2NC(=O)C2CC2)cc1	-16.2
CCC(=O)Nc1ccc(C(=O)N/N=C/c2cccnc2)cc1	9.46
CCC(OC(=O)c1cc2sccc2n1C)C(=O)NCC1CCCO1 (centres unmarked)	12.2
Cc1cccc(-n2c(O)c(C=Nc3ccc(O)cc3)c3ccccc3c2=O)n1	0.494
COc1cccc(CNC(=O)CCCn2nc(C)n3c(cc4sccc43)c2=O)c1	8.47
COc1cc(C)nc(N2CCCC(C(=O)Nc3ccccc3Br)C2)n1 (centres unmarked)	15.3
CCc1ccc(NC(=O)NCCN2CCc3ccccc3C2)cc1	-1.46
COc1ccc(NC(=O)CCNS(=O)(=O)c2cc(Br)ccc2Br)cc1S(N)(=O)=O	14.2
O=c1cc(C(F)(F)F)oc2c1ccc1ccccc12	12.8
CC(C)C(c1nnnn1Cc1ccc(F)cc1)N1CCN(C2CCCC2)CC1 (centres unmarked)	-3.74
CCCCOc1ccc(OC(=O)Nc2cc(Cl)ccc2OC)cc1	15.8
CC(C)CNC(=O)C(=O)Nc1cc2c3c(c1)CCC(=O)N3CCC2	11.4
CCCCOc1ccc(/C=N/NC(=O)c2nnn(-c3nonc3N)c2C)cc1	16.1
CCCC/C=C/[C@H](c1ccccc1)[C@H](CO)Cc1cccnc1	7.36
COc1ccccc1-n1c(CCC(=O)O)ccc1-c1ccccc1	-0.0386
CCOC(=O)c1ccc(N2C(=O)CC(N3CC(C)OC(C)C3)C2=O)cc1 (centres unmarked)	3.6
COc1cc(C(CC(=O)O)n2cnnn2)ccc1OC(C)C (centres unmarked)	5.15
CCOC(=O)C1=C(C)NC2=C(C(=O)CCC2)C1c1cccs1 (centres unmarked)	2.35
CCN(CC)CCCN(Cc1cc2cc3c(cc2[nH]c1=O)OCCO3)C(=O)Nc1ccc(F)cc1	-14.8
NS(=O)(=O)c1ccc(NC(=O)COc2ccc(Cl)cc2)cc1	-3.24
COc1cccc(NC(=O)CCC2CCN(C(=O)c3sccc3C)CC2)c1	10.7
O=C(Nc1ccccc1F)c1ccc(CN2CCc3ccccc3C2)cc1	13.6
CCN(c1cccc(C)c1)c1ncnc2nc[nH]c12	13.4

Compound	hERG current change (%, negative = inhibition) at 1uM [%]
O=C1NC(c2ccccc2)=C(c2nc3ccccc3s2)C(c2ccc(O)cc2)N1 (centres unmarked)	8.7
CC(OC(=O)C1CC1)C(=O)Nc1ncc(Cl)cc1Cl (centres unmarked)	15.1
COc1cccc(CC(NC(C)=O)C(=O)NC2CCN(S(=O)(=O)c3ccc(F)cc3)CC2)c1OC (centres unmarked)	15.3
COc1cc(C)c(C(C)C)cc1S(=O)(=O)NC1CC(C)(C)NC(C)(C)C1	6.42
COc1cc2cc(CCCOC(=O)c3cccc(Br)c3)oc(=O)c2cc1OC	11.4
CCOc1ccccc1CNC(=O)CCN1C(=O)COc2ccccc21	11.4
c1ccc(Cc2nnc(-c3ccccc3)o2)cc1	10.4
CCOC(=O)c1c[nH]c2ccc3ccccc3c2c1=O	16.9
CCCCOC(=O)c1ccc(NC(=O)CN2C(=O)NC3(CCCCCC3)C2=O)cc1	5.84
CCCCn1c(=O)[nH]c(=O)c2c1nc(-c1ccc([N+](=O)[O-])cc1)n2CC	3.84
CN(C)c1ccc(NC(=O)Oc2ccccc2)cc1	12.9
CCCCCn1c(=O)[nH]c2cc(C(=O)NCCCN3CCC(C)CC3)ccc2c1=O	6.13
O=C(Oc1cc2oc(=O)c3c(c2cc1Cl)CCCC3)c1ccco1	6.03
O=[N+]([O-])c1cnccc1Nc1ccc(Cl)cc1	4.46
Cn1c(=O)n(C)c2cc(/C=N/N=C3/NC(=O)C(CC(=O)O)S3)ccc21 (centres unmarked)	13.3
CCCCC1CC1C(=O)Nc1ncc2c(n1)CC(C)(C)CC2=O (centres unmarked)	-20.4
COc1cc(CNc2nc3ccccc3n2C)cc(OC)c1OC	11.6
O=C(CC1C(=O)NCCN1Cc1cccc(F)c1F)NC1CCCCCC1 (centres unmarked)	3.66
Cl.Oc1ccc(Cl)cc1CNCc1ccc(F)c(F)c1	11.6
CCCc1ccc(S(=O)(=O)N2CCN(C(C)C(=O)NCc3ccc(OC)cc3)CC2)cc1 (centres unmarked)	-13.9
O=C(NNC(=S)Nc1ccc(Cl)cc1Cl)c1ccncc1	14.1
COc1ccccc1/C=N/OCc1ccc(C#N)cc1	11.4
CCOC(=O)c1cccc(C2=CC(=O)C[C@H](c3ccc(Cl)cc3)C2)c1	7.61

Compound	hERG current change (%, negative = inhibition) at 1uM [%]
CCOC(=O)c1ccc(CSc2nnc(N)s2)cc1	5.39
O=C(CSc1nnc(CNc2ccc(F)cc2)n1Cc1ccccc1)N1CCOCC1	5.64
Cc1cc(C)n(C/C=C/Cn2nc(C)cc2C)n1	-13.6
COc1ccc(Nc2nc(NC(C)(C)C)nc(N3CCOCC3)n2)c(OC)c1	-1.4
CCC(C)Nc1nc2c(c(=O)n(C)c(=O)n2C)n1C (centres unmarked)	12.2
Cc1cc(C)n2nc(SCc3nnc(-c4cccs4)o3)nc2n1	11
CCC1CCCCN1C(=O)CCc1nnc(Cc2c[nH]c3ccccc23)o1 (centres unmarked)	8.72
COc1cccc(NC(=O)NNC(=O)c2ccc3c(c2)NC(=O)C(C)(C)O3)c1	19
Cc1ccc(NC(=O)CSc2nc3c(c(=O)[nH]2)CCC3)c(C)c1	15.1
CC(C)NC(=S)NC(=O)c1ccc(-c2ccccc2)cc1	5.54
Cc1sc(NC(=O)c2ccco2)c(C(c2cccnc2)N2CCN(C)CC2)c1C (centres unmarked)	-2.64
CC(NC(=O)CCCc1ccccc1)c1ccncc1 (centres unmarked)	0.702
O=C(CCn1nc(-c2ccc(Cl)cc2)ccc1=O)N1CCN(c2ccc(F)cc2)CC1	-3.84
CCCn1c(SCC(=O)NCCc2ccccc2)nnc1-c1ccco1	5
CCOc1ccc(NC(=O)Cn2nnc(C(=O)NCc3ccco3)c2N)cc1	13.1
Br.Cn1c(=N)n(CC(=O)c2ccc(F)cc2)c2ccccc21	3.87
O=[N+]([O-])c1ccc(NC2CCCC2)c2ccncc12	3.68
Nc1nncn1C(=O)c1cccs1	4.4
CCOC(=O)c1cc2c(ccn2C)n1CC(=O)N1CCN(c2ccc(F)cc2)CC1	14.3
COc1cc(OC)c(NC2c3ccccc3C(=O)N2c2cc(C)ccn2)cc1Cl (centres unmarked)	6.56
CC1(C)CC(=O)C=C(NCCN2CCN(C(=O)Nc3ccc(Cl)cc3)CC2)C1	5.78
CCOC(=O)C1(C)NC(c2cccs2)C2C(=O)N(c3ccc(OC)cc3)C(=O)C21 (centres unmarked)	5.74
O=C(CNC(=O)c1ccc(Br)o1)NNC(=O)c1ccc(Cl)cc1	4.58

Compound	hERG current change (%, negative = inhibition) at 1uM [%]
O=C(O)c1ccc2c(c1)-c1cc(C(=O)O)ccc1S2(=O)=O	13.8
COc1ccc(S(=O)(=O)n2cccc2)c(OC)c1	12.9
CN(C)S(=O)(=O)c1ccc2c(c1)c(=O)c(C(=O)N1CCN(c3ccccn3)CC1)cn2C	16.1
NS(=O)(=O)c1ccc(N=Nc2c(O)ccc3ccccc23)cc1	0.2
O=C(N/N=C/c1c(O)n(Cc2ccccc2)c(=O)[nH]c1=O)c1ccncc1	14.6
CCOc1ccccc1N1CC(C(=O)N(C)Cc2cccnc2)CC1=O (centres unmarked)	11.9
CC1CCCCN1Cc1c(O)ccc2c(=O)c(-c3nc4ccccc4s3)c(N)oc12 (centres unmarked)	5.23
Cc1ccccc1NC(=O)N1CCCC(c2nc(-c3ccc(F)cc3)no2)C1 (centres unmarked)	-0.93
O=C(Cn1cnc2sc3c(c2c1=O)CCCC3)NCC(=O)Nc1ccc(F)cc1F	9.73
O=C(C1CCN(Cc2cccs2)CC1)N1CCN(Cc2ccc3c(c2)OCO3)CC1.O=C(O)C(=O)O	5.24
C=CCn1c(/N=C/c2ccc3c(c2)OCO3)nc2ccccc21	6.96
CCOC(=O)C1=C(CP(=O)(c2ccccc2)c2ccccc2)NC(=O)NC1c1ccc(Cl)cc1 (centres unmarked)	9.29
Cc1noc(/C=C/N(C)C)c1S(=O)(=O)N1CCCC(C(=O)NCc2ccccc2Cl)C1 (centres unmarked)	13.6
COc1ccc(/C=C/CN2CCCC(CCC(=O)NCc3ccc(F)c(F)c3)C2)cc1 (centres unmarked)	-54.3
CC(=O)c1c(C)[nH]c(C(=O)COc2ccc3ccc(=O)oc3c2)c1C	4.35
O=C(CCn1nc(-c2ccccc2)c2ccccc2c1=O)NN1CCOCC1	10.1
CCOC(=O)c1c(C)nc2sc3c(=O)[nH]cnc3c2c1-c1ccc(OC)cc1	11.8
COc1ccc(-n2c(CN3CCC(C)CC3)nc3ccc([N+](=O)[O-])cc3c2=O)c(OC)c1	10.3
C=CCc1cccc2cc(C(=O)NC)c(=O)oc12	2.09
CCc1nc(N)c(C#N)c(-c2ccc(OC)c(OC)c2)c1C	13.5
